Results on 84 variants are retold here after the RNAGym collection of RNA variant scans (doi:10.1073/pnas.2313332121).

Variants at the floor of the assay are shown more often than the library holds them. Where only a bound is given, the exact number is not on record here.

First the molecules themselves.
B1: TPR 5TU (parent)
chain: GGAUCUUCUCGAUCUAACAAAAAAGACAAAUCUGCCACAAAGCUUGAGAGCAUCUUCGGAUGCAGAGGCGGCAGCCUUCGGUGGCGCGAUAGCGCCAACGUUCUCAACUAUGACACGCAAAACGCGUGCUCCGUUGAAUGGAGUUUAUCAUG

In this series the parent is B1. The series is described as follows: polymerase ribozyme fitness, log enrichment relative to wild type (log ratio); higher = more active; in vitro selection for triplet polymerase activity. The procedure, abridged: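 Fitness compares each genotype's enrichment to that of the wild type on a logarithmic scale, averaging replicates with inverse-variance weights. The logarithm is base 2. Enrichment came from Illumina sequencing of input and output libraries after one triplicate round of in vitro selection, which included frozen incubation at −7 °C, of PCR-built, transcribed mutant libraries of each subunit of a heterodimeric triplet polymerase ribozyme. Only genotypes with ≥10 input reads and ≥1 read per output were kept.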
In the case of U56A A89U, the “polymerase ribozyme fitness (log ratio)” value is -0.431.

On to C54U U78A G86U U104C C105A U130G C132A G136A, for which the “polymerase ribozyme fitness (log ratio)” value was at most -4.2. Turning to U56A C93U, the “polymerase ribozyme fitness (log ratio)” value is -2.13. With U56A C93A, the “polymerase ribozyme fitness (log ratio)” value was -2.63. For the variant U56A C93G, the “polymerase ribozyme fitness (log ratio)” value was -3.55. On to U56A G88U C114A, for which the “polymerase ribozyme fitness (log ratio)” value is at most -4.2.

Turning to C57A U135C, the “polymerase ribozyme fitness (log ratio)” value was -1.62. For C57U A89G U127G C131A, the “polymerase ribozyme fitness (log ratio)” value was at most -4.2. Turning to U55A G68C, the “polymerase ribozyme fitness (log ratio)” value was at most -4.2. With U56A G58A A89C C95G A122C G124C G141C, the “polymerase ribozyme fitness (log ratio)” value was -1.54. As to U55G G86A U139G, the “polymerase ribozyme fitness (log ratio)” value is -1.96.

Regarding U56C C108U, the “polymerase ribozyme fitness (log ratio)” value is -4.01. Regarding C57G A91G G100A C123A C131A, the “polymerase ribozyme fitness (log ratio)” value was at most -4.2. As for C57G G59C C75A C76G C125A G133C U148A, the figure is at most -4.2.

Regarding U56A G84U A89C A142U, the “polymerase ribozyme fitness (log ratio)” value is -3.24. As for U56A C79U C93U A115C A147G, the “polymerase ribozyme fitness (log ratio)” value was at most -4.2. For C57U C63U G65U G88A A138U, the “polymerase ribozyme fitness (log ratio)” value was at most -4.2. As for U55G C85G, the “polymerase ribozyme fitness (log ratio)” value is -1.66.

Take U56G G88A: the “polymerase ribozyme fitness (log ratio)” value is at most -4.2. As for U56A A91U, the “polymerase ribozyme fitness (log ratio)” value was at most -4.2. The same measure for U56A G81A C103G A121G A122U: -1.56. On to U56A G70C U78A U82A C131A, for which the “polymerase ribozyme fitness (log ratio)” value is at most -4.2. Turning to U55G A89G G124C U146C, the “polymerase ribozyme fitness (log ratio)” value was -1.44. As for U56A C96U C116U G143A, the “polymerase ribozyme fitness (log ratio)” value was -3.36. Regarding C57G U139C, the “polymerase ribozyme fitness (log ratio)” value was at most -4.2. For the variant U56A U61A C96U U101A, the “polymerase ribozyme fitness (log ratio)” value is -1.95. Take C57G G71A C96A U146A: the “polymerase ribozyme fitness (log ratio)” value was -4.05. As for U55A G68A C76A C96U C125G U144A, the figure is at most -4.2; as for U56A C57G G68A A97U U144A, at most -4.2; as for C57G G84U G136C, at most -4.2.

As to C57U C87G G141A, the “polymerase ribozyme fitness (log ratio)” value is at most -4.2. Turning to U56G G67A G86U A97G, the “polymerase ribozyme fitness (log ratio)” value was at most -4.2. The same measure for U55A G83U C99U A107C C123A C125G U127G A142G U145C: at most -4.2. For the variant C57G C99U U111G G124U, the “polymerase ribozyme fitness (log ratio)” value is at most -4.2.

Turning to U55A C95U C132G G141U, the “polymerase ribozyme fitness (log ratio)” value is at most -4.2.

C57G C75A C95A: the “polymerase ribozyme fitness (log ratio)” value was at most -4.2. C54U U102G U144A A150U: the “polymerase ribozyme fitness (log ratio)” value is at most -4.2. Regarding U55A G70C C79G, the “polymerase ribozyme fitness (log ratio)” value was at most -4.2.

Turning to U56A G59A A97U C149U, the “polymerase ribozyme fitness (log ratio)” value is -1.48.

As to U55G A107U A122U, the “polymerase ribozyme fitness (log ratio)” value is -3.21. The same measure for U56A A60U A66G A73G C95G U101C U109C A120G: at most -4.2; for U55A G68C A91G A107C: at most -4.2; for C57U A89C G92C G126U A138U U139C U148G G152U: at most -4.2. As for U56A A115C, the figure is -0.798; as for U56G G58C C99G, -2.63. For the variant U55A U104G C131G A150C, the “polymerase ribozyme fitness (log ratio)” value is at most -4.2. Turning to C57G G141A, the “polymerase ribozyme fitness (log ratio)” value was 0.453.

With U56C G67U A91C A97U C123A, the “polymerase ribozyme fitness (log ratio)” value is at most -4.2.

In the case of U56A A73G, the “polymerase ribozyme fitness (log ratio)” value is -0.236. As to C57A C69G A91U A119G G128A G140C U145G, the “polymerase ribozyme fitness (log ratio)” value is at most -4.2. With U55G G58A C93A U109G, the “polymerase ribozyme fitness (log ratio)” value was -3.3. Consider C57U G59A G86A U134A U148A, for which the “polymerase ribozyme fitness (log ratio)” value is at most -4.2. U55A G58A C85A C131U: the “polymerase ribozyme fitness (log ratio)” value amounted to 0.931. C57A C85A: the “polymerase ribozyme fitness (log ratio)” value was -1.28.

On to C57U C85A G100U A115G U135A G141C, for which the “polymerase ribozyme fitness (log ratio)” value was at most -4.2. With U55A C57G C87G C93U U104G, the “polymerase ribozyme fitness (log ratio)” value is at most -4.2. For C57U C95G G126U G141C, the “polymerase ribozyme fitness (log ratio)” value is at most -4.2. U55A G84U G152C: the “polymerase ribozyme fitness (log ratio)” value is -3.48. The same measure for U55A C63G C76U U78G G92C G136U G141C: at most -4.2; for C54U U61A G84U C108G G140U: at most -4.2. As to C57U C63U A66G A91U A106C G143U, the “polymerase ribozyme fitness (log ratio)” value was at most -4.2.

For U55G U134C G143U, the “polymerase ribozyme fitness (log ratio)” value is -1.98. The same measure for U55A G80C U144G: at most -4.2; for C57U G59A C85U C95G: -2.02.

As to C57G U78A, the “polymerase ribozyme fitness (log ratio)” value is at most -4.2. The same measure for U55G C93G C123A: at most -4.2; for U55A U77A: at most -4.2. On to U56A A64U, for which the “polymerase ribozyme fitness (log ratio)” value is -4.19. On to U55A C96A A119C A150U U151G, for which the “polymerase ribozyme fitness (log ratio)” value was at most -4.2.

Take C57A G68A C93U C125A: the “polymerase ribozyme fitness (log ratio)” value was at most -4.2. As for U56A G68C U90C C96U U127C, the figure is at most -4.2; as for U55A A64C U90A A113U A147C, at most -4.2. In the case of U56A C57U, the “polymerase ribozyme fitness (log ratio)” value is 0.273. The same measure for U55G C79G C85U U130G: at most -4.2; for U56A C79U C118G C132A: -4.05; for C57U C93G: -3.36. Consider C57U C93A, for which the “polymerase ribozyme fitness (log ratio)” value was -1.61. As for U56A A66G C95U C99U A120G, the “polymerase ribozyme fitness (log ratio)” value was at most -4.2. The same measure for U55A A115U: -1.89; for U55A A98G C108G G140U: at most -4.2; for U55G A60G: 0.467.

Consider U56A C76G G81A G88C U139G, for which the “polymerase ribozyme fitness (log ratio)” value was at most -4.2. Regarding U56C U109A U127C, the “polymerase ribozyme fitness (log ratio)” value was -3.65. Turning to C57G A64C A107C, the “polymerase ribozyme fitness (log ratio)” value is at most -4.2.
